# Measurements taken from PubChem BioAssay AID686979 (National Center for Advancing Translational Sciences (NCATS), 2013).
# The whole screen tested about 420,000 compounds, of which about 50,000 (12%) were called active. The shares of active, inactive and inconclusive entries below differ from those in the screen. Calls follow the shape of the dose curve; as a rule, active = well fitted inhibition curve with a large enough effect; inconclusive = small, poorly fitted or top-dose-only effect; inactive = flat fitted curve, though single readings scatter. No potency is given beside an inconclusive call; the fits are too rough.
# Test: qHTS for Inhibitors of human tyrosyl-DNA phosphodiesterase 1 (TDP1): qHTS in cells in presence of CPT; also: nearly all actives have a fitted effect of over 55% in size
# Conditions: chicken DT40 Tdp1-/-;hTDP1 cells + 20 nM CPT, ATP luminescence, 48 h; series mostly up to 46.2 µM
# Outline: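 Cell growth measured by CellTiter-Glo luminescence after a minimum 48 h, 37 C compound exposure with 20 nM CPT in Tdp1-knockout DT40 cells stably expressing hTDP1, seeded 400/well; qHTS titration format.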
# Potency is read from the fitted curve at half-maximal effect; tags tell the direction and shape of the fitted curve.
row,SMILES,Potency
1,CN(C(=O)Cn1cc(S(=O)(=O)Cc2ccccc2Cl)c2ccccc21)c1ccccc1,active: 20.6 µM
2,O=S(=O)(c1ccccc1)N1CCC[C@@]2(CCN(Cc3nccs3)C2)C1,"inconclusive [inhibitor, single point]"
3,COC(=O)[C@@]1(Cc2ccc(F)cc2)[C@H]2c3cc(C(=O)N(C)C)n(Cc4ccc(C)c(F)c4F)c3C[C@H]2CN1C(=O)c1ccccc1,"inconclusive [inhibitor, single point]"
4,CC(C)c1nc2sc3c(SCC(=O)NCc4ccco4)ncnc3c2c2c1CCC2,"inconclusive [inhibitor, single point]"
5,CCN(CC)C(=O)CSc1nc2cc(OC)c(OC)cc2c(=O)n1Cc1ccc(Cl)cc1,"inconclusive [inhibitor, single point]"
6,Cn1c(=O)c2c(ncn2CC(=O)Nc2cccc(Cl)c2Cl)n(C)c1=O,"inconclusive [inhibitor, single point]"
7,COc1ccc(C(N)c2nccc3cc(OC)c(OC)cc23)cc1OC (stereo not drawn),"inconclusive [inhibitor, single point]"
8,O=C1OC(=O)C2C1[C@@H]1CC[C@H]2O1 (stereo partly drawn),inactive
9,CC(/C=N/NC(=O)Cn1cnc2ccccc21)=C\c1ccccc1,active: 23.1 µM
10,CCOC(=O)Cn1c(=NC(=O)c2ccc([N+](=O)[O-])s2)sc2ccccc21,"inconclusive [inhibitor, partial curve]"
11,COc1ccccc1-c1nnc(SCC(=O)Nc2ccccc2)o1,"inconclusive [inhibitor, single point]"
12,COc1ccc(CC(=O)Nc2nc3ccc(F)cc3s2)cc1S(=O)(=O)N1CCOCC1,"inconclusive [inhibitor, single point]"
13,O=C(c1ccccc1F)N1N=C(C(F)(F)F)CC1(O)c1ccccc1 (stereo not drawn),"inconclusive [inhibitor, single point]"
14,COc1cc(OC)cc(C(=O)N2CCN(Cc3ccccc3C(F)(F)F)CC2)c1,"inconclusive [inhibitor, single point]"
15,CCNC(=O)C(Cc1ccccc1)NC(=O)OCc1ccccc1 (stereo not drawn),inactive
16,Cc1ccccc1C(=O)NC1(C(F)(F)F)C(=O)Nc2c1c(=O)[nH]c(=O)n2-c1ccc(F)cc1 (stereo not drawn),inactive
17,CCOc1ccc(S(=O)(=O)N2CCN(C(=O)c3oc4ccc(OC)cc4c3C)CC2)cc1,"inconclusive [inhibitor, single point]"
18,O=C(Cc1c(F)cccc1Cl)Nc1ncc([N+](=O)[O-])s1,"inconclusive [inhibitor, single point]"
19,CCc1ccc(-c2nc(CS(=O)CC(=O)NCc3ccc4c(c3)OCO4)c(C)o2)cc1 (stereo not drawn),inactive
20,O=C(O)c1ccc2c(c1)C(=O)N(c1ccc(Nc3ccccc3)cc1)C2=O,inactive
21,Cc1ccc(C2CC(=O)c3cnc(N4CCc5ccccc5C4)nc3C2)cc1 (stereo not drawn),"inconclusive [inhibitor, single point]"
22,O=S(=O)(/C=C/C=C/S(=O)(=O)c1ccccc1)c1ccccc1,active: 0.0259 µM
23,COC(=O)/C(=C\C=C\c1ccccc1)NC(=O)c1ccccc1,"inconclusive [inhibitor, single point]"

row,SMILES,Potency
1,Cc1ccc(S(=O)(=O)N2CCOCC2)cc1C(=O)OC(C)C(=O)c1ccccc1 (stereo not drawn),inactive
2,COc1cc(C2N=C(c3ccccc3)NO2)cc(Br)c1O (stereo not drawn),inactive
3,Cc1ccc(/C=N/Nc2ncc(Cl)cc2Cl)s1,"inconclusive [inhibitor, single point]"
4,CCOC(=O)CN1C(=O)N[C@@H](c2ccccc2)[C@H](C(C)=O)[C@H]1C,inactive
5,COc1ccc2c(c1)c(C(=O)CN1CCc3ccccc3C1)c(C)n2C,"inconclusive [inhibitor, single point]"
6,CC1CN(S(=O)(=O)c2cccc(C(=O)OC(C)C(=O)NC3CCCCC3C)c2)CC(C)O1 (stereo not drawn),inactive
7,COc1ccc(OCc2nnc(SCC(=O)Nc3cccc(Cl)c3)o2)cc1,inactive
8,CN(C)/C=C(\C#N)c1nc2ccccc2[nH]1,inactive
9,O=C(CCC1CCCN(Cc2ccc3c(c2)CCO3)C1)NCc1ccc(F)c(F)c1 (stereo not drawn),inactive
10,COC(=O)c1ccc(N2CCN(c3ccccc3)CC2)c(NC(=O)C2CC2)c1,active: 20.6 µM
11,CC1(c2ccc(Cl)cc2)NC(=O)N(CC(=O)Nc2ccc(N3CCCCC3)cc2)C1=O (stereo not drawn),"inconclusive [inhibitor, single point]"
12,CCCOc1ccc(C(=O)Nc2ccc(S(=O)(=O)N3C[C@@H]4C[C@@H](C3)c3cccc(=O)n3C4)cc2)cc1,"inconclusive [inhibitor, single point]"
13,COC(=O)C1=C[C@@H](C(=O)OC)[C@@H]2C3=C(C(=O)[C@@]2(C)NC(=O)c2ccccc2)[C@H](C)C(C(=O)OC)=C(C(=O)OC)[C@@H]3C1,inactive
14,COc1ccccc1N1CCN(CC(=O)c2ccc3ccn(C(C)=O)c3c2)CC1,active: 2.91 µM
15,O=C(CSc1nc2ccc(Cl)cc2[nH]1)Nc1ccc2c(c1)CCC2,"inconclusive [inhibitor, single point]"
16,O=c1sc2ccccc2c(N2CCOCC2)c1[N+](=O)[O-],inactive
17,COC(=O)C1(C(=O)OC)C[C@H](/C=C/c2ccccc2)N(Cc2ccccc2OC)[C@@H]1c1ccc(F)cc1,"inconclusive [inhibitor, single point]"
18,COCCN(Cc1cc2cc3c(cc2nc1Cl)OCO3)C(=O)c1cccc(C)c1,active: 7.31 µM
19,Nc1c(C(=O)NCc2ccco2)c2nc3ccccc3nc2n1CCc1ccc(F)cc1,active: 20.6 µM
20,Cc1ccc(C)c(OCC(=O)N(C)CC(=O)Nc2ccc(Cl)c(C(F)(F)F)c2)c1,"inconclusive [inhibitor, single point]"
21,COc1ccc(C(=O)N2CCCC(c3nc(-c4ccc(OC)c(OC)c4)no3)C2)c(OC)c1 (stereo not drawn),"inconclusive [inhibitor, single point]"
22,Brc1ccc(C2=Nn3c(Cn4nnc5ccccc54)nnc3SC2)cc1,"inconclusive [inhibitor, single point]"
23,Cc1ccc(S(=O)(=O)N2CCN(C(=O)CC(C)n3cncn3)CC2)cc1C (stereo not drawn),inactive

row,SMILES,Potency
1,CN(C)c1ccc(Sc2nnc(NC(=O)Nc3ccc(Cl)cc3Cl)s2)cc1,"inconclusive [inhibitor, single point]"
2,O=c1n(Cc2ccc(Cl)cc2)c2sc3c(c2c2ncnn12)CCCC3,"inconclusive [inhibitor, single point]"
3,CCOC(=O)N1CCC(NCCNC(=O)c2cccs2)CC1,inactive
4,COc1ccc(-c2noc(CN(C)C(=O)c3ccoc3C)n2)cc1,"inconclusive [inhibitor, single point]"
5,Cn1cc(CN2CCN(Cc3ccccc3)CC2)c(-c2cccc(Cl)c2)n1,"inconclusive [inhibitor, single point]"
6,Cc1ccc(C(=O)/C=C/Nc2ccc(S(=O)(=O)Nc3onc(C)c3C)cc2)cc1,"inconclusive [inhibitor, single point]"
7,COC(=O)c1cnn(-c2ccccc2)c1/C=N/NC(=S)Nc1ccc(Cl)cc1,inactive
8,COc1cc(/C=C(\C#N)c2nc3ccccc3[nH]2)ccc1OCc1cccc(C(F)(F)F)c1,active: 11.6 µM
9,CCCc1cnc2c(c1SCC(=O)Nc1ccc(C)c(Cl)c1)c(=O)n(C)c(=O)n2C,active: 18.4 µM
10,COc1ccc(F)cc1CN1CCN(CC(=O)Nc2ccccc2C(=O)NC2CC2)CC1,"inconclusive [inhibitor, single point]"
11,COc1cc(/C=N/NC(=O)CCn2c3ccccc3c3ccccc32)cc(OC)c1OC,"inconclusive [inhibitor, single point]"
12,COc1ccc(N2C(=O)[C@@H]3[C@H](C2=O)[C@H]2C=CC=NN2[C@@H]3C(=O)Nc2ccc(Cl)cc2)cc1,"inconclusive [inhibitor, single point]"
13,CCOc1ccc(/C=C2/Sc3ccc(C(=O)N4CCOCC4)cc3N(C)C2=O)cc1OC,"inconclusive [inhibitor, single point]"
14,Cc1cccc(C)c1-n1nnnc1C(c1cccs1)N1CCN(C/C=C/c2ccccc2)CC1 (stereo not drawn),"inconclusive [inhibitor, single point]"
15,CN(Cc1ccccc1)C(=S)NC(=O)c1cccs1,"inconclusive [inhibitor, single point]"
16,CC12COC3(C(=O)Nc4ccc(Cl)cc4)CC1CCC32C (stereo not drawn),"inconclusive [inhibitor, single point]"
17,CCc1nc2ccc(C(=O)NCCOc3ccc(OC)cc3)cn2c1N(C)C(=O)Cc1ccccc1,"inconclusive [inhibitor, single point]"
18,CCN1C(=O)[C@H]2[C@@H](c3ccc(-c4ccc(OC)cc4)cc3)N[C@@](C)(C(=O)OC)[C@H]2C1=O,"inconclusive [inhibitor, single point]"
19,COc1ccc(CN2CCC(C)CC2)cc1OCc1ccccc1,"inconclusive [inhibitor, single point]"
20,CN(C(=O)CSCC(=O)O)C1CCCCC1,inactive
21,Cc1cccc(N=C2NC(=O)/C(=C/C=C/c3ccco3)S2)c1,active: 13 µM
22,COc1ccc(CNc2ncnc3onc(-c4ccc(F)cc4)c23)cc1,active: 20.6 µM
